Experimental data published in PMC10107326 (Angewandte Chemie (International Ed. in English), 2022).

Experiments:
Conditions in all cases: pure darobactins
[1] = test system: Morganella morganii DSM-30164
[2] = test system: Proteus vulgaris DSM-2140
[3] = test system: A. baumannii NCTC 13301 (MDR)
K. pneumonia DSM-30104 = test system: K. pneumonia DSM-30104
A. baumannii DSM-30008 = test system: A. baumannii DSM-30008
[4] = test system: P. aeruginosa PA14 ΔmexAB
[5] = test system: P. aeruginosa PAO1 (DSM-22644)
E. coli ATCC-25922 = test system: E. coli ATCC-25922
E. coli JW0451-2 ΔacrB = test system: E. coli JW0451-2 ΔacrB
S. marcescens DSM-30121 = test system: S. marcescens DSM-30121
E. coli BW25113 = test system: E. coli BW25113
[6] = test system: P. aeruginosa PA14 (DSM-19882)
[7] = test system: P. aeruginosa NCTC 13437 (MDR)
E. coli K12 ΔtolC = test system: E. coli K12 ΔtolC
A. baumannii DSM-30007 = test system: A. baumannii DSM-30007
P. aeruginosa DSM-1117 = test system: P. aeruginosa DSM-1117
[8] = test system: Citrobacter freundii DSM-30039
P. mirabilis DSM-4479 = test system: P. mirabilis DSM-4479

Substance: D32: engineered darobactin, core peptide WNWCKRW, cysteine disulfide-bonded to L-cysteine and lactic acid (not fully specified; also: Cys4 disulfide-bonded to L-cysteine, lactic acid attached, position not given here)
- MIC [1]: > 64 µg/mL
- MIC [2]: > 64 µg/mL
- MIC [3]: 2 to 4 µg/mL
- MIC (K. pneumonia DSM-30104): 8 µg/mL
- MIC (A. baumannii DSM-30008): 1 µg/mL
- MIC [4]: 4 µg/mL
- MIC [5]: 2 µg/mL
- MIC (E. coli ATCC-25922): 2 µg/mL
- MIC (E. coli JW0451-2 ΔacrB): 1 µg/mL
- MIC (S. marcescens DSM-30121): > 64 µg/mL
- MIC (E. coli BW25113): 1 µg/mL
- MIC [6]: 8 µg/mL
- MIC [7]: 16 µg/mL
- MIC (E. coli K12 ΔtolC): 0.5 to 1 µg/mL
- MIC (A. baumannii DSM-30007): 1 to 2 µg/mL
- MIC (P. aeruginosa DSM-1117): 16 µg/mL
- MIC [8]: 2 to 4 µg/mL
- MIC (P. mirabilis DSM-4479): > 64 µg/mL

No end group written: not given here.
